According to PubChem BioAssay AID2675 (National Center for Advancing Translational Sciences (NCATS), 2010):
About 100 (0.036%) of roughly 280,000 compounds were called active. The shares of active, inactive and inconclusive entries below differ from those in the screen. Calls come from the whole dose curve; as a rule, active = well fitted inhibition curve with a large enough effect in the signal ratio, with a control signal flat (not every such curve was filed as active); inconclusive = small, poorly fitted or top-dose-only effect, or effect the other way, or a change in a side signal; inactive = no such curve, though single readings can be large or run the other way; the % refers to the signal ratio. Where the call is inconclusive, the potency comes from a doubtful curve fit. A note “side channel” means that the fit belongs to a control or component signal, not to the main read-out.

Biological target: Muscleblind-like protein 1 (Homo sapiens) (UniProt Q9NR56)
Sequence of UniProt Q9NR56 (Q9NR56 whole entry, looked up): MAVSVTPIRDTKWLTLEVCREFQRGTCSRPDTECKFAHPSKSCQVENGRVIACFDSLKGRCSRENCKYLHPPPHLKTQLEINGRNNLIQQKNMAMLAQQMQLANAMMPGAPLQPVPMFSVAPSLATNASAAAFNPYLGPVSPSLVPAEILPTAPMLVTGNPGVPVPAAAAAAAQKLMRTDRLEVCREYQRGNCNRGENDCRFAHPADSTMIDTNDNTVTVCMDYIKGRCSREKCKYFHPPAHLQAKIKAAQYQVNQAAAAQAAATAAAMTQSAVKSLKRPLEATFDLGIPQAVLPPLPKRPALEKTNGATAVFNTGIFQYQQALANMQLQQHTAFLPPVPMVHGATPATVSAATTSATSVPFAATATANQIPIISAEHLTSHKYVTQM
Assay: qHTS Assay for Inhibitors of MBNL1-poly(CUG) RNA binding
Conditions: TR-FRET MBNL1-His/biotin-(CUG)12 binding, 665/545 ratio; activity change, negative = inhibition: at 57.5 µM (top of the series)
Outline: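 Compounds (final 92 nM to 58 uM) are added to His-tagged MBNL1 and biotin-(CUG)12, then terbium anti-His antibody and streptavidin-XL665 (5 nM final). After 60 min at room temperature, the 665/545 nm ratio is read.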
% is set by controls: 0 for no effect and ±100 for the full control effect; potency is the fitted concentration of half-maximal effect; tags give direction and shape of the fitted curve or compound fluorescence and quenching.

**Q.** `O=C(O)Cc1ccc(NC(=O)c2ccc(NC(=O)C3CC3)cc2)cc1` was tested. Which Potency did it give?
**A.** inconclusive: 100 µM [inhibitor, single point]

**Q.** Which “activity change, negative = inhibition” value does the source give for `CCc1ccc2c(c1)CCCN2C(=O)c1ccccc1C(=O)O` here?
**A.** inactive: 14.8%

**Q.** For `CCCc1cc(C(=O)NC2CCCCC2)no1`, which Potency is on record?
**A.** inconclusive: 79.4 µM [inhibitor, single point]

**Q.** For `Cc1ccc(-c2noc(C3CCCN(C(=O)c4cccc([N+](=O)[O-])c4)C3)n2)o1` (stereo unspecified), which Potency is on record?
**A.** inconclusive: 4.47 µM [quencher, side channel, full curve]

**Q.** Which Potency does the source give for `COC(=O)N/N=C\C=C\c1ccc2c(c1)OCO2` here?
**A.** inconclusive: 7.94 µM [quencher, side channel, partial curve]

**Q.** How did the Potency turn out when `NS(=O)(=O)c1ccc(N/N=C/c2ccc(O)c(O)c2O)c([N+](=O)[O-])c1` was run?
**A.** inconclusive: 3.55 µM [quencher, full curve]

**Q.** Which “activity change, negative = inhibition” value does the source give for `O=C(Nc1ccc(F)cc1)NC1CCN(Cc2ccccc2)CC1` here?
**A.** inactive: -3.45%

**Q.** Which “activity change, negative = inhibition” value does the source give for `Cc1csc2ncnc(N3CCN(S(=O)(=O)c4cccc(C(F)(F)F)c4)CC3)c12` here?
**A.** inactive: -0.779%

**Q.** Which Potency does the source give for `Cc1nnc(N/N=C/c2ccc(-c3ccccc3F)o2)n1N` here?
**A.** inconclusive: 25.1 µM [quencher, side channel, partial curve]

**Q.** Which Potency does the source give for `COC(=O)c1ccc(Cn2c(O)c(N=NC(N)=S)c3ccccc32)o1` here?
**A.** inconclusive: 17.8 µM [quencher, side channel, partial curve]

**Q.** With `CN(C)[C@@H]1C(=O)C(C(=O)NCN2CCCC2)=C(O)[C@@]2(O)C(=O)C3=C(O)c4c(O)cccc4[C@@](C)(O)C3CC12` (stereo partly specified) as the compound, how does the Potency read?
**A.** inconclusive: 63.1 µM [inhibitor, single point]

**Q.** `NC(=O)c1sc2nc(-c3cccs3)ccc2c1N` was tested. Which Potency did it give?
**A.** inconclusive: 15.8 µM [quencher, side channel, partial curve]

**Q.** For `CCOc1cc(S(=O)(=O)N2CC=C(c3ccc(F)cc3)CC2)c(OCC)cc1-n1cnnn1`, which “activity change, negative = inhibition” value is on record?
**A.** inactive: -5.02%

**Q.** How did the Potency turn out when `COc1ccc2cc1Oc1ccc(cc1)CC1c3c(cc(OC)c4c3Oc3cc5c(cc3O4)CCNC5C2)CCN1C` (stereo unspecified) was run?
**A.** inconclusive: 200 µM [inhibitor, partial curve]

**Q.** `CS(=O)(=O)N(CC(=O)N1CCOCC1)c1cccc(Cl)c1Cl` was tested. Which “activity change, negative = inhibition” value did it give?
**A.** inactive: -5.06%

**Q.** `CN(C(=O)COC(=O)c1ccccc1C(=O)N(C)c1ccccc1)c1ccccc1` was tested. Which “activity change, negative = inhibition” value did it give?
**A.** inactive: -6.72%

**Q.** Which Potency does the source give for `CC(=O)N1CCc2cc(S(=O)(=O)CCC(=O)Nc3ccc4c(c3)OCCO4)ccc21` here?
**A.** inconclusive: 6.31 µM [quencher, side channel, full curve]

**Q.** `COc1ccc(C(=O)Nc2ccncc2)cc1[N+](=O)[O-]` was tested. Which Potency did it give?
**A.** inconclusive: 3.98 µM [quencher, side channel, partial curve]

**Q.** `O=C(/C=C/c1ccc(Cl)c([N+](=O)[O-])c1)c1cccnc1` was tested. Which Potency did it give?
**A.** inconclusive: 7.08 µM [fluorescent, side channel, single point]

**Q.** With `COc1ccc(C2CC3(CC(C)(C)NC(SC)=N3)Oc3cc(O)cc(C)c32)cc1` (stereo unspecified) as the compound, how does the Potency read?
**A.** inconclusive: 2.82 µM [fluorescent, side channel, full curve]

**Q.** Which “activity change, negative = inhibition” value does the source give for `COc1ccc(C(=S)N(C)C)cc1OC` here?
**A.** inactive: -7.67%

**Q.** For `O=C(c1ccc(S(=O)(=O)Cc2ccccc2F)c([N+](=O)[O-])c1)N1CCCC1`, which Potency is on record?
**A.** inconclusive: 12.6 µM [quencher, side channel, partial curve]

**Q.** For `N#Cc1ncc(C(F)(F)F)cc1Sc1ccc(N)cc1`, which “activity change, negative = inhibition” value is on record?
**A.** inactive: 4.09%

**Q.** `CCc1ccc(Oc2ncnc(N)c2[N+](=O)[O-])cc1` was tested. Which Potency did it give?
**A.** inconclusive: 3.55 µM [quencher, side channel, full curve]

**Q.** How did the “activity change, negative = inhibition” value turn out when `COC(=O)CSc1nnc(-c2ccccc2OC)n1-c1ccc(C)cc1` was run?
**A.** inactive: -8.93%

**Q.** With `Cc1[nH]c2ccccc2c1C(C#N)(C#N)C1C(=O)c2ccccc2C1=O` as the compound, how does the Potency read?
**A.** inconclusive: 12.6 µM [quencher, side channel, partial curve]

**Q.** Which Potency does the source give for `O=C(NCc1ccc(Cl)c(Cl)c1)c1ccco1` here?
**A.** inconclusive: 6.31 µM [quencher, side channel, single point]

**Q.** Which Potency does the source give for `Cc1nn(C)c(C)c1NC(=O)c1cc2nc(-c3ccco3)cc(C(F)(F)F)n2n1` here?
**A.** inconclusive: 17.8 µM [quencher, side channel, partial curve]

**Q.** Which “activity change, negative = inhibition” value does the source give for `CCc1nc2ccccc2n1Cc1ccccc1OC` here?
**A.** inactive: -13.7%

**Q.** `CS(=O)(=O)c1ncc(Cl)c(C(=O)Nc2ccc(OC(F)F)cc2)n1` was tested. Which “activity change, negative = inhibition” value did it give?
**A.** inactive: 17.6%

**Q.** `O=C(Cn1cc([N+](=O)[O-])cn1)N1N=C(C(F)F)CC1(O)C(F)F` (stereo unspecified) was tested. Which Potency did it give?
**A.** inconclusive: 35.5 µM [quencher, side channel, partial curve]

**Q.** Which Potency does the source give for `CN1C(C(=O)c2ccccc2)=C(N)c2ccccc2S1(=O)=O` here?
**A.** inconclusive: 15.8 µM [quencher, side channel, partial curve]

**Q.** Which “activity change, negative = inhibition” value does the source give for `CN=C(c1ccc(C)cc1)n1c(=S)nc(-c2ccc(C)cc2)n(C)c1=S` here?
**A.** inactive: -0.946%

**Q.** For `CC(=O)Nc1ccc(NC(=O)c2c([N+](=O)[O-])c(C(C)(C)C)nn2C)cc1`, which “activity change, negative = inhibition” value is on record?
**A.** inactive: -7.71%

**Q.** With `O=c1oc2ccccc2c(Nc2ccc3ccccc3c2)c1[N+](=O)[O-]` as the compound, how does the Potency read?
**A.** inconclusive: 3.16 µM [quencher, side channel, full curve]

**Q.** Which Potency does the source give for `N/C(=N\OC(=O)c1ccc([N+](=O)[O-])cc1)c1ccccn1` here?
**A.** inconclusive: 0.891 µM [quencher, side channel, full curve]

**Q.** How did the Potency turn out when `COC(=O)Cn1c(C)c(/C=C/c2cc[n+](C)cc2)c2ccccc21` was run?
**A.** inconclusive: 12.6 µM [quencher, partial curve]

**Q.** How did the Potency turn out when `CN(C)CCNC(=O)c1cc2sc3ccccc3c2s1` was run?
**A.** inconclusive: 17.8 µM [quencher, side channel, single point]

**Q.** How did the Potency turn out when `CN(C)/C=N/c1ncc(C(=O)c2ccccc2)s1` was run?
**A.** inconclusive: 10 µM [quencher, side channel, partial curve]

**Q.** For `CC1CCCCN1C(=O)c1cc(Cl)ccc1[N+](=O)[O-]` (stereo unspecified), which Potency is on record?
**A.** inconclusive: 7.94 µM [quencher, side channel, partial curve]

**Q.** For `CCCCn1nnnc1NCc1ccc(C)s1`, which Potency is on record?
**A.** inconclusive: 3.98 µM [quencher, side channel, single point]
